Values marked as one replicate rest on one cluster of the flow cell; about a third of the high ones do not repeat.
What follows are sequences tested on ATP (assay: switch fluorescence ratio, 500 uM ATP over buffer (Cy3 cluster intensity, sum of 5 cycles each) (fold (ratio)); higher = stronger signal-on switching upon ATP binding; sequences stand for … in TCGTCGGCAGCGTCAGATGTGTATAAGAGACAGTTTTTTTTTTTTTTTTTTTTTTTTT…TC). Conditions: aptamer strand: ATP DNA aptamer (quencher-CACCTGGGGGAGTATTGCGGAGGAAGG + anchor), 100 nM annealed; ATP concentration: 500 uM; one replicate.
In short: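 The fluorescence ratio divides summed target-cycle Cy3 intensity by summed buffer-cycle Cy3 intensity for each cluster and is averaged per switch-domain sequence. Cy3-labelled switching-strand clusters on a modified Illumina MiSeq flow-cell were annealed to 100 nM quencher-labelled ATP aptamer, then imaged in selection buffer and again after 15 min with 500 uM ATP at 22 °C. Five such cycles were run, with NaOH stripping and re-annealing between them, and clusters outside 100-1000 RFU were excluded.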
For TCCTCAAC, the switch fluorescence ratio was 1.02.
TCCTCAAGGT showed a switch fluorescence ratio of 1.49.
Work on TCCTCATCGT yielded a switch fluorescence ratio of 1.14.
For TCCTCCACTT, the switch fluorescence ratio was 2.57.
In the case of TCCTCGAGGA, the switch fluorescence ratio is reported as 0.967.
In the case of TCCTCTTTGG, the switch fluorescence ratio is reported as 1.03.
Work on TCCTGACGCT yielded a switch fluorescence ratio of 1.11.
With TCCTGGGCCG the switch fluorescence ratio was 1.01.
TCCTGTGTGA gave a switch fluorescence ratio of 1.06.
With TCCTGTTTAC the switch fluorescence ratio was 1.06.
Sequence TCCTTAGAGG has a switch fluorescence ratio of 1.02.
Sequence TCCTTATGAA has a switch fluorescence ratio of 0.994.
Sequence TCCTTCAGAT has a switch fluorescence ratio of 1.02.
Work on TCCTTCCTAG yielded a switch fluorescence ratio of 2.01.
In the case of TCCTTCTTTG, the switch fluorescence ratio is reported as 0.966.
Sequence TCCTTGGGAA has a switch fluorescence ratio of 0.999.
TCCTTGGTTA showed a switch fluorescence ratio of 1.04.
In the case of TCCTTTATTC, the switch fluorescence ratio is reported as 1.02.
TCCTTTCCTG showed a switch fluorescence ratio of 1.1.
TCCTTTTATT gave a switch fluorescence ratio of 1.03.
In the case of TCCTTTTGCG, the switch fluorescence ratio is reported as 0.921.
TCGAAACAAT showed a switch fluorescence ratio of 1.1.
With TCGAAACAGC the switch fluorescence ratio was 1.03.
TCGAAATAAT showed a switch fluorescence ratio of 0.99.
TCGAACGT showed a switch fluorescence ratio of 1.
TCGAAGCATT gave a switch fluorescence ratio of 2.9.
Work on TCGAAGCGCG yielded a switch fluorescence ratio of 0.948.
TCGAAGGAAG was tested, and the switch fluorescence ratio was 1.01.
Sequence TCGAAGTTTG has a switch fluorescence ratio of 1.05.
For TCGAATCGCG, the switch fluorescence ratio was 0.996.
With TCGAATGGT the switch fluorescence ratio was 1.01.
Work on TCGAATTATC yielded a switch fluorescence ratio of 1.02.
TCGAATTTGA gave a switch fluorescence ratio of 0.979.
TCGACCCGT gave a switch fluorescence ratio of 1.05.
In the case of TCGACGGAAG, the switch fluorescence ratio is reported as 1.02.
Work on TCGACGGGCA yielded a switch fluorescence ratio of 1.08.
In the case of TCGACGGGCT, the switch fluorescence ratio is reported as 1.11.
In the case of TCGACTAATT, the switch fluorescence ratio is reported as 0.995.
For TCGACTACGG, the switch fluorescence ratio was 1.
TCGACTCT gave a switch fluorescence ratio of 1.03.
In the case of TCGAGCCAGA, the switch fluorescence ratio is reported as 0.974.
For TCGAGCCGGT, the switch fluorescence ratio was 0.999.
In the case of TCGAGGATC, the switch fluorescence ratio is reported as 1.04.
TCGAGGCCCC was tested, and the switch fluorescence ratio was 1.04.
In the case of TCGAGGCTGC, the switch fluorescence ratio is reported as 1.28.
TCGAGTGGCG gave a switch fluorescence ratio of 0.987.
TCGAGTTGAT showed a switch fluorescence ratio of 1.07.
For TCGATAGGGT, the switch fluorescence ratio was 1.01.
TCGATAGTAT showed a switch fluorescence ratio of 0.999.
TCGATAGTCT showed a switch fluorescence ratio of 0.983.
TCGATAGTTT was tested, and the switch fluorescence ratio was 0.999.
With TCGATATACA the switch fluorescence ratio was 1.06.
For TCGATCCCCT, the switch fluorescence ratio was 1.01.
TCGATCCGG gave a switch fluorescence ratio of 0.974.
Sequence TCGATGAGTT has a switch fluorescence ratio of 0.941.
Sequence TCGATGGAA has a switch fluorescence ratio of 1.
TCGATGGTGG gave a switch fluorescence ratio of 0.97.
For TCGATGGTTC, the switch fluorescence ratio was 0.96.
TCGATGTACG was tested, and the switch fluorescence ratio was 1.
In the case of TCGATTACTT, the switch fluorescence ratio is reported as 1.08.
Work on TCGATTCG yielded a switch fluorescence ratio of 1.02.
Sequence TCGATTCTTG has a switch fluorescence ratio of 1.06.
For TCGATTTAGT, the switch fluorescence ratio was 0.968.
Work on TCGCAAACG yielded a switch fluorescence ratio of 1.21.
TCGCACAAAT showed a switch fluorescence ratio of 1.12.
TCGCATCTAT gave a switch fluorescence ratio of 1.1.
TCGCATTCTT showed a switch fluorescence ratio of 1.34.
For TCGCATTGTC, the switch fluorescence ratio was 2.05.
TCGCCAACAT showed a switch fluorescence ratio of 0.983.
TCGCCGCCCA gave a switch fluorescence ratio of 1.21.
For TCGCCGGTAT, the switch fluorescence ratio was 1.01.
For TCGCCGTATT, the switch fluorescence ratio was 1.01.
TCGCCTTGCA was tested, and the switch fluorescence ratio was 0.974.
Work on TCGCGGAAAG yielded a switch fluorescence ratio of 1.01.
TCGCGGAGAG showed a switch fluorescence ratio of 1.02.
Sequence TCGCGGCACT has a switch fluorescence ratio of 1.79.
With TCGCGGCGTG the switch fluorescence ratio was 1.02.
TCGCGGGAGT gave a switch fluorescence ratio of 0.97.
In the case of TCGCGGGATG, the switch fluorescence ratio is reported as 1.03.
TCGCGGTACT showed a switch fluorescence ratio of 3.36.
TCGCGTGGTC was tested, and the switch fluorescence ratio was 1.03.
With TCGCTAAATT the switch fluorescence ratio was 0.999.
TCGCTAATTT showed a switch fluorescence ratio of 1.2.
In the case of TCGCTAGAG, the switch fluorescence ratio is reported as 1.11.
TCGCTAGTCT showed a switch fluorescence ratio of 1.02.

From the supplement of paper PMC10126150
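Also: ATP exposure 15 min at 22 °C before imaging.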
